# The whole screen tested about 310,000 compounds, of which about 2,200 (0.71%) showed an effect of 50% or more. The effect is printed as a negative number. This is one part of the list.
# Molecular target: human ether-à-go-go-related gene (hERG) potassium channel (human, UniProt Q12809)
# Assay: primary screen, population patch clamp on CHO cells stably expressing hERG
# human ether-à-go-go-related gene (hERG) potassium channel, sequence (Q12809 whole entry, looked up): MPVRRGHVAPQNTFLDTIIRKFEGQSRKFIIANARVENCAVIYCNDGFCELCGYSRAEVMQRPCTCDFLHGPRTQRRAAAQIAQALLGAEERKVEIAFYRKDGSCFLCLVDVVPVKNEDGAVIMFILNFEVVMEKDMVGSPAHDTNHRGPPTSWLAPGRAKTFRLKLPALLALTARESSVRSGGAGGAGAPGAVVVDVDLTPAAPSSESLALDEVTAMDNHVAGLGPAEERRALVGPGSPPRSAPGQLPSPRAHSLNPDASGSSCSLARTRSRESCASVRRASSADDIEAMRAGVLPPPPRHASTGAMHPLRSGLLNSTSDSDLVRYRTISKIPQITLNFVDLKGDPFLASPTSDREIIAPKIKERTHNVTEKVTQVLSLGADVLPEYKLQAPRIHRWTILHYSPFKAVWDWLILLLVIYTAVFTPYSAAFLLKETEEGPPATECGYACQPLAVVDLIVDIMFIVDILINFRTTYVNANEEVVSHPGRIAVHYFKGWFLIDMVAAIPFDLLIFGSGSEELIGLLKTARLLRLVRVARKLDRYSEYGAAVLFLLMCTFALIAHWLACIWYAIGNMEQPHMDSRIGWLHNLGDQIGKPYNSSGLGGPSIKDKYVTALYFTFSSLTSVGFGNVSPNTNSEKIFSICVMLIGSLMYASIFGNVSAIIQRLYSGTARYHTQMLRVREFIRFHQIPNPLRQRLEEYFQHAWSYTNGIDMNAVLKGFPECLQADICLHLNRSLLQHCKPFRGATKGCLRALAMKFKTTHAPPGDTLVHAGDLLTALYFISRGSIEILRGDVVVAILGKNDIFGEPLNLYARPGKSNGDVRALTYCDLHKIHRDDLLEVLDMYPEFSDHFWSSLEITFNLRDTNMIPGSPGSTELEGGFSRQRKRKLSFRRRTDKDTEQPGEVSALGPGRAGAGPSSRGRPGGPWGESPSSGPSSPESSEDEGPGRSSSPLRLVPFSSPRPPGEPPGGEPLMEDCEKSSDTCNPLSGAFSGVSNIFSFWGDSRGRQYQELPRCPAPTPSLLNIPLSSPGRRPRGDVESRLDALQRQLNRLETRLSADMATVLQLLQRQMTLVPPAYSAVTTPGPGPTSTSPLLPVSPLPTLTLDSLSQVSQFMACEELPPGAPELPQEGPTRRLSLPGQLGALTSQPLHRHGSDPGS
row,SMILES,"hERG current change (%, negative = inhibition) at 1uM [%]"
1,Brc1ccc2nc(N3CCN(c4ccccc4)CC3)sc2c1,29.3
2,COc1ccc(C(=O)NC2CCN(CC(=O)NC3CCCCC3)CC2)cc1,-1.11
3,Cc1csc(SC(C)C(=O)NCC(=O)Nc2ccc(F)c(F)c2F)n1 (stereo not shown),21.8
4,CCOC(=O)CSc1nnc(CSc2nc3sc4c(c3c(=O)[nH]2)CCCC4)n1-c1ccccc1,8.67
5,CC1(C)Cc2cccc(OCC(=O)Nc3ccccc3F)c2O1,12.4
6,CCOC(=O)CNC(=O)Cn1cnc2c(cnn2-c2ccc(C)cc2)c1=O,8.67
7,Nc1nnnn1/N=C/c1cccs1,-14.1
8,Cc1ccc(NC(=O)c2cnccn2)c(C)c1,13.6
9,Cc1ccc(CN(C)C(=O)CC2C(=O)NCCN2CC2CCCCC2)cc1 (stereo not shown),13.4
10,O=C(c1cc([N+](=O)[O-])ccc1N1CCN(S(=O)(=O)c2ccc(Cl)c(Cl)c2)CC1)N1CCOCC1,6.99
11,CCC1COCCS(=O)(=O)N1Cc1ccc(F)cc1 (stereo not shown),8.01
12,COc1ccc(/C=C(\C#N)c2c[nH]c3ccccc23)cc1,13.3
13,CCc1ccc(OCC(=O)NNC(=O)c2cc3ccccc3o2)cc1,5.53
14,Cc1ccc(-n2nc(C)c3c2NC2=C(C(=O)CC(C)(C)C2)C3c2ccccc2OCC(=O)O)cc1 (stereo not shown),15.7
15,CC(=O)Nc1ccc(S(=O)(=O)NNC(=O)c2cccc(Br)c2)cc1,23.9
16,Cc1cc2c(ncn2C)c(NS(=O)(=O)c2cc(Cl)ccc2Cl)c1C,-1.29
17,CCCNC(=O)CSc1nc(-c2cccs2)cc(C(F)(F)F)n1,-6.22
18,COc1ccc(N(CC(=O)NCCSC2CCCCC2)S(=O)(=O)c2ccccc2)cc1OC,4.54
19,O=C(Cc1ccccc1)n1nc(-c2ccccc2)nc1NCc1ccco1,15.3
20,CC1CCN(c2c(NCc3ccc(C(=O)N4CCc5ccccc54)cc3)c(=O)c2=O)CC1,6.24
21,CC(C)C(=O)Nc1c2c(nn1-c1ccc([N+](=O)[O-])cc1)CS(=O)(=O)C2,19.6
22,COc1ccc2c(=O)c(-c3ccccc3)c(C)oc2c1,11.8

row,SMILES,"hERG current change (%, negative = inhibition) at 1uM [%]"
1,O=C(O)CS(=O)CC(=O)Nc1cccc(C(F)(F)F)c1 (stereo not shown),7.67
2,CCc1ccc([C@@H]2CC=C(C(=O)O)[C@H](c3ccccc3F)N2S(=O)(=O)c2ccc(C)cc2)cc1,8.48
3,Cn1nc(C(=O)NCC2COc3ccccc3O2)c2ccccc2c1=O (stereo not shown),1.44
4,CCOc1ccc2nc(SCC(=O)N3CCN(C(=O)c4ccco4)CC3)sc2c1,-24.9
5,Cc1csc(NC(=O)CCc2nc3ccccc3s2)n1,12.5
6,CC(C)(C)c1nc(SCC(=O)Nc2nc3c(s2)CCCC3)c2ccccc2n1,16.9
7,CCc1ccc2c(c1)C(c1ccncc1)=NNC(c1ccccc1)=N2,12
8,O=C(COc1ccccc1)Nc1ccc(N2CCCCC2)cc1,12.7
9,Cc1oc2ccccc2c1CC(=O)NCCCN(C)C,10.4
10,O=C(NCc1ccco1)C1CC(=O)N(c2ccc(O)cc2)C1 (stereo not shown),-7.17
11,Cc1ccc(-n2nnnc2SCC(=O)NC(=O)Nc2ccc3c(c2)OCCO3)cc1,24.1
12,Clc1ncccc1-c1nnn(-c2ccccc2Br)n1,9.65
13,O=C(O)CC(O)(CC(=O)O)C(=O)O,8.67
14,COCc1c(C(=O)N/N=C\c2cccs2)nnn1-c1nonc1N,13.4
15,COc1ccc(Br)c(C(=O)OCc2cc(=O)oc3cc(C)ccc23)c1,10.9
16,O=c1onc(-c2ccccc2)c2ccccc12,11.6
17,CC(C)n1ncc2c(C(=O)O)cc(C3CC3)nc21,4.21
18,C/C(=C\C(=O)c1ccc(Cl)s1)N(C)C,13.7
19,C=CCOC(=O)C1=C(C)OC(N)=C(C#N)C12C(=O)N(CN1CCOCC1)c1ccccc12 (stereo not shown),2.82
20,CC(C)(C)c1cc(NCCCn2ccnc2)n2ncc(-c3ccc(Cl)cc3)c2n1,10.6
21,Cc1ccc(NC(=O)[C@@]2(CC(=O)O)CC(/C=C/c3ccccc3)=NO2)c(C)c1,5.41
22,O=C(c1cccc(Oc2ccc([N+](=O)[O-])cc2)c1)N1CCOCC1,1.31

row,SMILES,"hERG current change (%, negative = inhibition) at 1uM [%]"
1,O=[N+]([O-])c1ccccc1S(=O)(=O)Oc1ccccc1/C=N/n1cnnc1,0.974
2,O=C(NCc1ccccc1Cl)C(=O)NCC1CCCN1S(=O)(=O)c1cccs1 (stereo not shown),17.8
3,Cc1ccc(S(=O)(=O)CCC(=O)OCC(=O)N2c3ccccc3CC2C)cc1 (stereo not shown),11.9
4,O=C(Cn1nnc(-c2ccc(Cl)cc2)n1)NC1CC2CCC1C2 (stereo not shown),8.69
5,Cc1cccc(CCNC(=O)CCS(=O)(=O)c2cc3c(cc2Cl)NC(=O)CO3)c1,10.1
6,Cc1cc2cccc(C)c2nc1SCC(=O)NCC1CCCO1 (stereo not shown),10.4
7,COc1ccc([N+](=O)[O-])cc1COc1cc(C)cc2oc(=O)cc(-c3ccccc3)c12,3.54
8,CC(C)C[C@H](NC(=O)OC(C)(C)C)C(=O)N[C@@H](CO)[C@H](O)[C@@H]1C[C@@H]1C(=O)N(C)C,10.3
9,Cc1[nH]c2ccc(C(=O)NCCN3CCCCCC3)cc2c1C,8.02
10,O=C(NCc1ccco1)c1cccc(S(=O)(=O)N2CCc3ccccc32)c1,1.7
11,CSc1ccc(CN(C)C(=O)CNC(=O)c2ccc3c(c2)OCO3)cc1,5.28
12,Cc1ccc(OCCn2c(CCNC(=O)C(C)C)nc3ccccc32)cc1,-4.8
13,CCc1ccc(C2NC(=S)NC3=C2C(=O)CCC3)cc1 (stereo not shown),17
14,CN(C)N1C(N)=C(C#N)C(c2cccc3ccccc23)C2=C1CC(c1ccccc1)CC2=O (stereo not shown),7.76
15,Cc1nc2ccc(N)cc2s1,2.1
16,O=c1[nH]c(C2CCN(S(=O)(=O)c3ccc(S(=O)(=O)NC4CC4)cc3)CC2)nc2c1nnn2Cc1ccccc1,16.1
17,O=C(CSc1nccc(=O)[nH]1)Nc1ccc(N2CCOCC2)c(Cl)c1,12.3
18,O=C(c1cncc(Br)c1)N1CCN(S(=O)(=O)c2ccc(Cl)cc2)CC1,0.19
19,CCn1c(SCC(=O)NCc2cccs2)nc2c1c(=O)n(C)c(=O)n2C,-19.9
20,COc1cc(/C=C/c2ccc(O)cc2)cc(OC)c1,1.91
21,CCCCN(C(=O)c1cccc(S(=O)(=O)N2CCN(Cc3ccccc3)CC2)c1)c1ccccc1,12.5
22,O=C(COC(=O)c1ccc(Br)cc1)Nc1ccccc1Br,15.1

row,SMILES,"hERG current change (%, negative = inhibition) at 1uM [%]"
1,Nc1n[nH]c(N)c1N=Nc1cccc(F)c1,7.5
2,CC(C)(C)NC(=O)NC(=O)CN1CCN(c2ncc(C(F)(F)F)cc2Cl)CC1,13
3,O=C(c1ccccc1)c1ccc(N2CCOCC2)c(NC(=O)c2ccco2)c1,2.13
4,O=c1c2c(-c3ccco3)csc2nc(SCc2cn3cccnc3n2)n1-c1ccccc1,4.86
5,CCCCCc1nnc(NC(=O)Cc2ccc([N+](=O)[O-])cc2)s1,18.3
6,Cc1cc(NC(=S)N(CCN2CCCCC2)Cc2ccco2)ccc1Cl,12.7
7,CSc1nc(O)c(N=Nc2ccc(F)cc2F)c(=O)[nH]1,7.93
8,COc1cc(NS(=O)(=O)c2ccc(C)cc2C)cc(OC)c1OC,1.51
9,CC(C)OC(=O)c1cc(NC(=O)C2C3CCC(O3)C2C(=O)O)cc(C(=O)OC(C)C)c1 (stereo not shown),3.57
10,Br.O=[N+]([O-])c1cccc(-c2csc(Nc3ccccc3)n2)c1,13.8
11,COc1ccc(OC)c(C2C(C#N)=C(N)Oc3c2c(C)nn3-c2ccc(C)cc2)c1 (stereo not shown),4.3
12,Cc1ccccc1C(=O)Nc1ccccc1,6.1
13,Cc1cc(OC(=O)c2c(Cl)cc(Cl)cc2Cl)nc(C)n1,10.1
14,Cc1nc(SCc2ccccc2)c2ccsc2n1,17
15,CCCN1C(=O)c2ccc(C(=O)Nc3cc(C)ccc3O)cc2C1=O,12.9
16,CCCCOCCCNC(=O)C1CCCCC1,0.827
17,COc1ccc(S(=O)(=O)Nc2cc(C(=O)NC3CCCCCC3)ccc2N2CCOCC2)cc1,-21.2
18,CCOC(=O)/C(=N\Nc1ncnc2ccccc12)c1ccc(OC)cc1,5.05
19,N=C(N)c1ccc(O)cc1,10.9
20,NS(=O)(=O)c1ccc(CCNS(=O)(=O)c2ccccc2)cc1,10.8
21,COC(=O)c1ccc(NC(=O)Nc2ccc(OC)cc2)cc1,20.9
22,CCN(CC)CCN(C(=O)c1ccc(N2C(=O)CCC2=O)cc1)c1nc2cc3c(cc2s1)OCO3.Cl,-7.59

# Source: paper PMC4336329 (PLoS ONE, 2015)
